PubChem BioAssay AID624202 (National Center for Advancing Translational Sciences (NCATS), 2012)
Out of some 380,000 compounds screened, about 4,000 (1.1%) were called active. Inconclusive results, whose numbers are uncertain, are shown with a selection of clear calls. Calls follow the shape of the dose curve; as a rule, active = well fitted activation curve with a large enough effect; inconclusive = small, poorly fitted or top-dose-only effect; inactive = no such curve, though single readings can be large or run the other way. Potencies of inconclusive entries are doubtful fits and often do not repeat.

experiment: qHTS Assay to Identify Small Molecule Activators of BRCA1 Expression; conditions: MCF7-BRCA1-FFLuc reporter, luminescence, 48 h; activation: at 46.1 µM (top of the series), scaled: vehicle 0%, 10 µM genistein 100% unless noted; also: nearly all actives have a fitted effect of over 80% in size
How it was run: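 MCF7-BRCA1-FFLuc, 2000 cells/well; 2 h attach, 37 °C/5% CO2; compound 48 h; luciferase substrate 15 min; luminescence end-point. Norm. to genistein 10 microM max activation and DMSO; concentration-response curves fitted.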
Potency is read from the fitted curve at half-maximal effect; tags tell the direction and shape of the fitted curve.

SMILES | Potency | activation
COc1ccc(NC(=O)c2ccc3c(c2)N(C)CCS3)cc1 | active: 10 µM | 
CCOC(=O)c1ccc(N=NN(C)C)cc1 | active: 12.6 µM | 
CS(=O)(=O)N1CCc2nc(-c3ccccc3)sc2C1 | inconclusive: 1.78 µM [activator, full curve, poor fit] | 
O=C(NCc1ccco1)c1cc2c(s1)CCCCC2 | active: 11.2 µM | 
Cc1nc2ccc(NC(=O)c3cncc(Br)c3)cc2s1 | inconclusive: 10 µM [activator, partial curve, poor fit] | 
CN(C)c1ccc(C(=O)/C=C/c2ccccc2)cc1 | inconclusive: 1.26 µM [activator, full curve, poor fit] | 
Fc1ccc(Nc2nnc(-c3ccncc3)s2)cc1Cl | inconclusive: 3.98 µM [activator, partial curve, poor fit] | 
COc1cccc(-c2cnc(C(O)c3ccccc3)[nH]2)c1 (centres undefined) | active: 11.2 µM | 
COc1cc(Cl)c(CC(=O)NO)cc1OC |  | inactive: 0%
CC1CN(S(=O)(=O)c2cc(C(=O)N(CCc3ccccc3)Cc3ccccc3)ccc2Cl)CC(C)O1 (centres undefined) |  | inactive: -65.8%
O=C(NCCc1ccc2c(c1)OCCO2)c1ccccc1F | inconclusive: 12.6 µM [activator, partial curve, poor fit] | 
O=C(N/N=C/c1c(O)n(-c2ccc(Cl)cn2)c(=O)c2ccccc12)c1ccncc1 |  | inactive: 1.89%
CN(C(=O)CSc1nnc(-c2ccccc2F)o1)c1ccccc1 | active: 11.2 µM | 
CCC(=O)Oc1ccc2c(=O)c(-c3ccc4ccccc4n3)c(CC)oc2c1C |  | inactive: -15.8%
Cc1ccc(C2=N/C(=C\N3CCCCC3)C(=O)O2)cc1 | inconclusive: 1.78 µM [activator, full curve, poor fit] | 
COC(=O)c1c(C)[nH]c(C(=O)/C=C/c2ccccc2F)c1C | inconclusive: 1.58 µM [activator, full curve, poor fit] | 
CN(CC(=O)Nc1sc2c(c1C#N)CCCCC2)Cc1nc2ccccc2c(=O)[nH]1 |  | inactive: -13.9%
c1ccc(-c2ccc3ncccc3n2)cc1 | inconclusive: 1.12 µM [activator, full curve, poor fit] | 
Cc1cccc(S(=O)(=O)N2CCN(c3nc(-c4cccs4)nc4ccccc34)CC2)c1 |  | inactive: -0.0589%
Cc1cc(OCc2cc(C(=O)N(C)Cc3ccccn3)no2)cc(C)c1Cl | active: 11.2 µM | 
OC(COc1ccc(Cl)cc1)CSc1ccccn1 (centres undefined) |  | inconclusive: 289% [activator]
COCCNC(=S)N1CCc2cc(OC)c(OC)cc2C1COc1ccc(F)cc1 (centres undefined) |  | inactive: 0%
CCC(CO)Nc1ncnc2c1cnn2-c1ccc(Cl)cc1 (centres undefined) | inconclusive: 2.24 µM [activator, full curve, poor fit] | 
CCn1cc(C(=O)NCCCN(CC(C)C)CC(C)C)c(=O)c2cc(S(=O)(=O)N3CCOCC3)ccc21 |  | inactive: -13.8%
O=C(Nc1nc2ccc([N+](=O)[O-])cc2s1)C1CCCO1 (centres undefined) | inconclusive: 15.8 µM [activator, partial curve, poor fit] | 
CCc1ccc(NC(=O)CSc2nnnn2C)cc1 |  | inconclusive: 24.8% [activator]
Cc1cc(C)c(NC(=O)Cn2nnc(C(=O)NCc3ccc4c(c3)OCO4)c2N)c(C)c1 |  | inactive: -1.26%

SMILES | Potency | activation
O=C(Nc1ccc2c(c1)OCCO2)c1cccc(Br)c1 | inconclusive: 2.82 µM [activator, full curve, poor fit] | 
CCc1nnc(NC(=O)c2ccc(OC)cc2)s1 | active: 7.08 µM | 
COc1ccc(C(=O)Oc2c(OC)cc(C(=S)N3CCOCC3)cc2OC)cc1 |  | inactive: -14.3%
COc1ccc(-c2cc(C(=O)NC3CCCC3)no2)cc1 | inconclusive: 1.26 µM [activator, full curve, poor fit] | 
C=C1NN(CC#N)C(=O)N1c1ccc(OCc2ccccc2)cc1 | active: 10 µM | 
CCOc1ccc(NC(=O)CSc2nccn2Cc2ccco2)cc1 | inconclusive: 12.6 µM [activator, partial curve, poor fit] | 
O=C(c1ccc(Cn2cc(Cl)cn2)cc1)N1CCN(c2ccccc2)CC1 |  | inactive: -1.74%
O=C(NCc1ccc2c(c1)OCO2)Nc1ccc2nsnc2c1 | inconclusive: 20 µM [activator, partial curve, poor fit] | 
CC(=O)Nc1cccc(NC(=O)c2ccc(COc3ccccc3)cc2)c1 | active: 2.24 µM | 
CCSc1nnc2ccc(-c3ccc(OC)c(OC)c3)nn12 |  | inactive: 0%
O=C(NC1CCCCC1)c1ccc([N+](=O)[O-])cc1 | inconclusive: 11.2 µM [activator, single point] | 
CN(C)C(=O)N1CCN(c2nc(-c3ccccc3)cs2)CC1 | inconclusive: 3.98 µM [activator, partial curve, poor fit] | 
COc1ccccc1-c1ccc2c(c1)C(C)(Cc1cc(Cl)ccc1C(F)(F)F)C(=O)N2 (centres undefined) |  | inactive: -12%
CCOc1ccccc1N1CC(C(=O)NC2CCCCCC2)CC1=O (centres undefined) |  | inactive: -1.92%
CCOC(=O)c1c(-c2ccc(C)cc2)csc1NC(=O)c1ccc(N2C(=O)CCC2=O)cc1 |  | inactive: -2.51%
COc1ccc(C(=O)Nc2nc3ccccc3[nH]2)cc1OC | inconclusive: 6.31 µM [activator, partial curve, poor fit] | 
COc1ccc(/C(C)=N/Nc2cccc(C(=O)O)c2)cc1OC | inconclusive: 2 µM [activator, partial curve, poor fit] | 
Nc1nc2ccc(OC(F)(F)F)cc2s1 |  | inactive: -8.06%
COc1ccc(OC)c(-c2cc(C3CCN(C(=O)OC(C)(C)C)CC3)[nH]n2)c1 | inconclusive: 25.1 µM [activator, single point] | 
COc1cccc(C(=O)/C=C/Nc2cc(C)ccc2O)c1 | inconclusive: 35.5 µM [activator, single point] | 
CC(=O)c1ccccc1C(=O)N1CCCC(CCC(=O)N2CCN(c3ccccn3)CC2)C1 (centres undefined) |  | inactive: -2.53%
CCOC(=O)c1cccc(NC(=O)c2ccc3c(Cl)c4c(nc3c2)CCC4)c1 | inconclusive: 2.51 µM [activator, partial curve, poor fit] | 
COc1ccc(Cc2c(-c3cccc(Cl)c3)nc3cc(C)c(Br)c(C)n23)c(C)c1 |  | inactive: -13.2%
CC(=O)c1ccc(NC(=O)CSCCO)cc1 |  | inactive: 28.3%
COc1ccc(N(C)C(=O)c2cc3c(Cl)nc4ccccc4c3s2)cc1 |  | inactive: -37.9%
CN(C)CCCOC(=O)N1c2ccccc2C=Cc2ccccc21 |  | inactive: 0.588%
CCCCOc1ccc(N2C(=O)CC(NCCc3ccc(S(N)(=O)=O)cc3)C2=O)cc1 (centres undefined) |  | inactive: 1.73%

SMILES | Potency | activation
O=C(NC1CCCCC1)c1cc(-c2cccc(Cl)c2)on1 | active: 4.47 µM | 
Cc1ccc(-c2nnc(SCc3ccccc3C#N)o2)cc1 | inconclusive: 1.78 µM [activator, full curve, poor fit] | 
O=C(O)COc1ccccc1-c1nc(-c2ccccc2)c(-c2ccccc2)[nH]1 |  | inactive: -30.6%
Cc1ccccc1OCC(=O)Nc1ccc2c(c1)Cc1ccccc1-2 | inconclusive: 12.6 µM [activator, partial curve, poor fit] | 
Cc1cc(OCC(=O)N2CCOCC2)ccc1[N+](=O)[O-] | inconclusive: 7.94 µM [activator, partial curve, poor fit] | 
Cc1csc(NC(=O)Cc2ccccc2Cl)n1 | active: 10 µM | 
c1ccc(CCN2CN=C(Nc3nc4ccccc4o3)NC2)cc1 | active: 7.94 µM | 
Cc1cc(C(=O)N/N=C/c2ccc(C)s2)n[nH]1 | active: 7.08 µM | 
O=C(N/N=C/c1ccccn1)c1cc(-c2ccc(Br)cc2)nc2ccccc12 |  | inactive: -81.8%
Cn1c(-c2ccc(CN3CCCCC3)o2)nc2ccccc21 | active: 3.16 µM | 
COc1cc(/C=C(\C#N)C(=O)N2CCOCC2)cc(Br)c1O |  | inactive: 20.4%
COc1ccc(Nc2ncnc3c2oc2ccccc23)cc1 | inconclusive: 2 µM [activator, partial curve, poor fit] | 
O=C(N/N=C/c1ccc[nH]1)c1cc2ccccc2cc1O | inconclusive: 11.2 µM [activator, partial curve, poor fit] | 
O=C(Nc1ccccc1C(F)(F)F)c1cc2ccccc2o1 | inconclusive: 11.2 µM [activator, single point] | 
CCOc1ccc2nc(NC(=O)c3ccc(C)o3)sc2c1 | inconclusive: 0.631 µM [activator, full curve, poor fit] | 
O=c1c(-c2ccc3c(c2)OCCO3)coc2cc(OC3OC(CO)C(O)C(O)C3O)ccc12 (centres undefined) | inconclusive: 2.51 µM [activator, full curve, poor fit] | 
O=C(CSCc1cccs1)N1CCCC1 | active: 12.6 µM | 
Cc1c(OCc2ccc([N+](=O)[O-])cc2)ccc2c3c(c(=O)oc12)CCC3 | inconclusive: 1.12 µM [activator, full curve, poor fit] | 
O=C(NC(=S)NC1CCCCC1)c1ccc(Cl)cc1 | inconclusive: 14.1 µM [activator, partial curve, poor fit] | 
COc1ccc(-c2cc3nc4n(c(=O)c3s2)CCC4)cc1 |  | inconclusive: -75.7% [activator]
COc1cc(NC(=O)Cc2ccccc2)c(C(=O)O)cc1OC |  | inactive: -38.3%
Cc1cccnc1Nc1nc(-c2ccc(O)cc2O)cs1 | inconclusive: 3.98 µM [activator, full curve, poor fit] | 
Cc1nc(-c2ccccc2)sc1-c1ccnn1C | inconclusive: 7.08 µM [activator, full curve, poor fit] | 
N#Cc1cccc(-c2csc(C(O)c3ccc(F)cc3)n2)c1 (centres undefined) | active: 7.94 µM | 
O=C(CCS(=O)(=O)c1ccccc1)Nc1nc2ccc(F)cc2s1 |  | inactive: -23%
